PubChem BioAssay AID2451 (National Center for Advancing Translational Sciences (NCATS), 2010)
Hit rate of the full screen: of about 290,000 compounds, about 2,100 (0.72%) were called active. The shares of active, inactive and inconclusive entries below differ from those in the screen. The call rests on the fitted dose curve; in most records, active means well fitted inhibition curve with a large enough effect; inconclusive means small, poorly fitted or top-dose-only effect, or effect the other way; inactive means flat fitted curve, though single readings scatter. Potencies of inconclusive entries are doubtful fits and often do not repeat.

Target: Fructose-bisphosphate aldolase (Giardia intestinalis (strain ATCC 50803 / WB clone C6)) (UniProt A8B2U2)
UniProt A8B2U2, sequence (A8B2U2 whole entry, looked up): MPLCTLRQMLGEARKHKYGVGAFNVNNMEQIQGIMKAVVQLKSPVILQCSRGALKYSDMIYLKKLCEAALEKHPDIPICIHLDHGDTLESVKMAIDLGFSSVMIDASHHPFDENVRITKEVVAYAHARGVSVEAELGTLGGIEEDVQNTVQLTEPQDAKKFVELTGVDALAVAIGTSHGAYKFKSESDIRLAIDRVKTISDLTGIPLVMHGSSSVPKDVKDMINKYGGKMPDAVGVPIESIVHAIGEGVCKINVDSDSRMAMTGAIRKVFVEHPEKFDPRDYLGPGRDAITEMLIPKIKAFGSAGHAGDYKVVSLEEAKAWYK
Experiment: qHTS Assay for Inhibitors of Fructose-1,6-bisphosphate Aldolase from Giardia Lamblia; further: nearly all actives have a fitted effect of over 55% in size
Details: purified Giardia FBPA; activity, negative = inhibition: at 59.6 µM (top of the series) unless noted
Procedure, shortened: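 Giardia FBPA (40 nM reagent) was preincubated 10 min at RT with compound (up to 57.5 uM final), then substrate plus GAPDH/TPI/NAD/arsenate coupling system with diaphorase/resazurin was added; resorufin fluorescence (525/598 nm) was read after 20 min.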
On the % scale 0 is the no-effect control and ±100 the full control effect; potency means the concentration at half of the fitted maximal effect; tags describe the fitted curve by direction and shape.

SMILES | Potency | activity, negative = inhibition
CC(NC(=O)c1nn(C)c(=O)c2ccccc12)c1ccc(F)cc1 (stereo not given) | inactive | 
CC1CCN(CCCOc2ccc(Cl)cc2Br)CC1 | inconclusive: 14.1 µM [inhibitor, partial curve] | 
O=C(CN1CCN(c2ccc(O)cc2)CC1)Nc1ccc2c(c1)OCCO2 | inconclusive: 15.8 µM [inhibitor, partial curve] | 
CC1(C)CC(=O)C2=C(C1)OC(/N=C/N1CCOCC1)=C(C#N)C2c1ccccc1 (stereo not given) | inconclusive: 31.6 µM [activator, single point] | 
CCOC(=O)c1csc(NC(=O)CSc2nnc(C3CC3)n2C)n1 | inactive | 
CCOC(=O)C1=C(c2ccccc2)NC(SCC(=O)Nc2ccccc2C)=C(C#N)C1c1ccco1 (stereo not given) | inactive | 
c1ccc(C(c2nnnn2C2CCCCC2)N2CCc3ccccc3C2)nc1 (stereo not given) | inconclusive: 8.89 µM [inhibitor, partial curve] | 
O=C(c1ccccn1)N1CCN(c2cccc(C(F)(F)F)c2)CC1 | inactive | 
Cc1cccc(OCCn2ccnc2)c1C | active: 22.4 µM | 
Cc1ccc(NC(=O)C2Cc3ccccc3O/C2=N\O)cc1C (stereo not given) | inactive | 
O=C(NCc1cccnc1)c1ccc(COc2ccccc2Br)cc1 | inactive | 
Cc1ccc(CNCC(=O)Nc2ccc(N3CCOCC3)cc2)cc1 | inconclusive: 17.7 µM [inhibitor, partial curve] | 
COc1ccc(/C(N)=N/OC(=O)CSc2ccc(C)cc2)cc1OC | inactive | 
COc1cccc(C(=O)Nc2cnc(NC(=O)c3ccco3)cc2C)c1 | inactive | 
Cc1ccc(Sc2ccc(CN3CCCC3)cc2[N+](=O)[O-])cc1 | inactive | 
COc1ccc(S(=O)(=O)NCCc2cn3cccc(C)c3n2)cc1OC | inactive | 
OCCNc1nc(Nc2ccc(Cl)c(Cl)c2)nc2ccccc12 | inconclusive: 20 µM [inhibitor, single point] | 
Cc1cc2c(n1-c1ccc(C(=O)O)cc1)CCCCC2 | inconclusive: 28.2 µM [inhibitor, partial curve] | 
COc1ccccc1COCC(O)CN1CCCCC1CO (stereo not given) | inconclusive: 12.6 µM [inhibitor, partial curve] | 
COc1ccc(NC(=S)Nc2cccc([N+](=O)[O-])c2)cc1 | inactive | 
CNC(=O)c1ccc2snnc2c1 | inactive | 
COc1ccc(OCCCN(C)Cc2ccccc2)cc1 | inconclusive: 14.1 µM [inhibitor, partial curve] | 
O=C(CN1CCN(S(=O)(=O)c2ccccc2[N+](=O)[O-])CC1)Nc1ccc(N2CCOCC2)cc1 | inactive | 
Cc1cc(C)c(OCCCCN2CCC(C)CC2)c(Br)c1 | inconclusive: 19.9 µM [inhibitor, single point] | 
CCOC(=O)c1nn(-c2ccc(Cl)cc2Cl)c(=N)c(C#N)c1C | inconclusive: 14.1 µM [inhibitor, partial curve] | 

SMILES | Potency | activity, negative = inhibition
O=C(O)c1ccc(S(=O)(=O)/N=C2\C=C(Nc3ccccc3F)C(=O)c3ccccc32)cc1 | inconclusive: 0.631 µM [inhibitor, full curve] | 
CCCCOC(=O)C(C)Nc1n[nH]c(=S)[nH]c1=O (stereo not given) | inconclusive: 9.98 µM [inhibitor, partial curve] | 
CCN1CCN(Cc2cc3c(cc2[N+](=O)[O-])OCO3)CC1 | inconclusive: 28.2 µM [inhibitor, partial curve] | 
COc1cc(C(=O)N2CCN(S(=O)(=O)c3cccs3)CC2)cc(OC)c1C | inconclusive: 15.8 µM [inhibitor, partial curve] | 
Cc1ccc(C(=O)Nc2ccc3c(c2)OCO3)cc1NC(=O)c1ccco1 | inactive | 
COc1ccc(C(=O)[C@H]2[C@H]3C(=O)N(c4ccc(OC(C)=O)cc4)C(=O)[C@H]3C3C=CC=NN32)cc1 (stereo not given in full) | inconclusive: 17.7 µM [inhibitor, partial curve] | 
CCN(CC)c1ccc(N=Cc2c(C)[nH]c3ccccc23)cc1 | inconclusive: 0.792 µM [inhibitor, full curve] | 
CC1(C)CC(=O)C2=C(C1)Nc1ccccc1NC2 | inconclusive: 14.1 µM [inhibitor, partial curve] | 
CCOC(=O)N1CCN(C(=O)Nc2ccc3nc(-c4ccccn4)c(-c4ccccn4)nc3c2)CC1 | inconclusive: 15.8 µM [inhibitor, partial curve] | 
CCCC(C)NC(=O)Cc1ccc(Br)cc1 (stereo not given) | inconclusive: 35.4 µM [activator, single point] | 
CCCCc1nnc(NC(=O)c2nc3nccc(C)n3n2)s1 | inconclusive: 15.8 µM [inhibitor, partial curve] | 
O=C1Nc2ccc(Br)cc2C1(O)c1ccc(F)cc1 (stereo not given) | inactive | 
COc1ccc(CCNC(=O)CCc2ccc(S(=O)(=O)NCC(C)C)cc2)cc1OC | inconclusive: 17.7 µM [inhibitor, single point] | 
COc1ccc(-n2nc3ccc(N)cc3n2)cc1Cl | inconclusive: 12.6 µM [inhibitor, partial curve] | 
COC(=O)C1=COC(O[C@H]2OC(CO)[C@H](O)C(O)C2O)[C@H]2C1C(=O)C[C@@H]2C (stereo not given in full) | inactive | 
CCOc1ccccc1-c1c2cc(O)c(=O)cc-2oc2cc(O)c(O)cc12 | active: 6.29 µM | 
Cc1c(C(=O)Nc2cnccn2)oc2ccccc12 | inactive | 
CCN1CCN(CCCOc2ccc(Cl)cc2Br)CC1 | inconclusive: 11.2 µM [inhibitor, partial curve] | 
O=C(CCNC(=O)c1ccco1)Nc1cccc(C(F)(F)F)c1 | inactive | 
CCN1CCN(CC(=O)Nc2cc(C)on2)CC1 | inconclusive: 17.7 µM [inhibitor, partial curve] | 
Cc1c(NC(=O)/C(C#N)=C/c2ccc(-c3cc(Cl)ccc3Cl)o2)c(=O)n(-c2ccccc2)n1C | inactive | 
CSCc1ccc(C(=O)NCc2ccc(F)cc2)cc1 | inactive | 
CCc1cccc(NC(=O)c2ccc(CNc3c(N4CCCC4)c(=O)c3=O)cc2)c1 | inactive | 
COc1ccccc1/C=C/c1nc(C#N)c(N(C)C)o1 | inactive | 
Clc1ccccc1-c1ncc2ccccn12 | inconclusive: 17.7 µM [inhibitor, partial curve] | 

SMILES | Potency | activity, negative = inhibition
CC(=O)Nc1ccc(C(=O)Nc2ccc(S(=O)(=O)Nc3nccc(C)n3)cc2)cc1 | inconclusive: 20 µM [inhibitor, partial curve] | 
COc1ccc(OC)c(S(=O)(=O)Nc2ccc(O)c(Sc3ncn[nH]3)c2)c1 | inconclusive: 17.7 µM [inhibitor, single point] | 
COC(=O)CSc1nnc(CNC(=O)c2cccs2)n1-c1cccc(C)c1 | inconclusive: 5 µM [activator, single point] | 
COc1ccc(CCN(C)CC(O)c2ccccc2)cc1OC (stereo not given) | inconclusive: 22.3 µM [inhibitor, partial curve] | 
Cc1cccc(Nc2nc(C)cc(C)n2)c1 | inconclusive: 28.2 µM [inhibitor, single point] | 
CC(C)Cn1[nH]c2c3c(ccc2c1=O)C(=O)c1ccccc1C3=O | inconclusive: 1.99 µM [inhibitor, full curve] | 
CCn1c(C)c(C(C)=O)c(N2CCN(c3ccccc3)CC2)nc1=S | inconclusive: 17.7 µM [inhibitor, single point] | 
CO[C@H]1COC(=O)[C@H](C)COC(=O)C/C=C\[C@@H](C)[C@H](OC)COC(=O)C/C=C\[C@@H]1C |  | inactive: -0.701% [at 12.9 µM]
Cc1csc(NC(=O)CSc2ccc(-c3ccccn3)nn2)n1 | inconclusive: 35.4 µM [inhibitor, single point] | 
C=CCN(CC=C)CCOc1cccc(Oc2ccccc2)c1 | inconclusive: 17.7 µM [inhibitor, partial curve] | 
CCCC(=O)N1CCc2[nH]c3ccccc3c2C1 | inconclusive: 19.9 µM [inhibitor, partial curve] | 
Fc1ccc(-c2cc3nc(-c4ccccc4)cc(N4CCN(CCN5CCOCC5)CC4)n3n2)cc1 | inactive | 
CC(Sc1nc2cc([N+](=O)[O-])ccc2n1-c1ccc(F)cc1)C(=O)NCc1ccc2c(c1)OCO2 (stereo not given) | inconclusive: 15.8 µM [inhibitor, partial curve] | 
Cc1ccc2c(c1)N/C(=C(\C=C(/Cl)[N+](=O)[O-])[N+](=O)[O-])N2 | inconclusive: 17.7 µM [inhibitor, single point] | 
COc1ccc(CCN(C)CCCC(C#N)(c2cc(OC)c(OC)c(OC)c2)C(C)C)cc1OC (stereo not given) | inactive | 
Cc1ccc(S(=O)(=O)Nc2cc3c(C(=O)Nc4ccccc4)c(C)oc3c3ccccc23)cc1 | inconclusive: 17.7 µM [inhibitor, partial curve] | 
Fc1ccccc1Nc1nc(-c2ccncc2)nc2ccccc12 | inactive | 
Cc1ccc(NC(=O)c2cc(-c3ccccc3)nn2-c2ccccc2)c(Br)c1 | inactive | 
COc1ccccc1CC(=O)Nc1ncc(C)s1 | inactive | 
Cn1c(=O)c(Nc2ccc(O)cc2)c2c3c(cccc31)C(=O)c1ccccc1-2 | inconclusive: 15.8 µM [inhibitor, single point] | 
CN1CCN(NC(=S)Nc2ccc(OC(F)F)cc2)CC1 | inconclusive: 25.1 µM [inhibitor, single point] | 
COCCNC(=S)N/N=C/c1ccc(N2CCOCC2)cc1 | inactive | 
O=[N+]([O-])c1ccccc1C1Nc2cccc3cccc(c23)N1 | inconclusive: 2.24 µM [inhibitor, full curve] | 
C/C(=N/Nc1nc(C)cc(C)n1)c1ccc(Br)cc1 | inconclusive: 3.55 µM [inhibitor, full curve] | 
CCCCOC(=O)Cn1c(=O)c2c(nc3n2CCCCN3c2ccc(C)cc2)n(C)c1=O | inactive | 
